The supplement of paper PMC8183993
Values joined by “and” are separate entries in the source; they are usually repeats but may differ in a detail not shown here. Equal values may be shown once. Where a name gives a salt, the structure may show the parent alone. ± gives the standard deviation of the averaged measurements. Whole data set: some 3,200 compounds, median “nuclei count (viability) relative to DMSO” near 99, cut for the lowest 2% near 16. The list shows a part of the results.

Tested on: U2OS
Assay: nuclei count (viability) relative to DMSO (% of DMSO); higher = more viable cells
Details: 10 µM; 24 h
Protocol: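 Primary image-based screen in U2OS cells: compounds at 10 uM for 24 h, then a 1 h o-propargyl-puromycin (OPP) pulse, click labelling, and high-throughput microscopy. Mean cytoplasmic OPP intensity and nuclei count were normalised to DMSO wells within each plate (DMSO = 100) and averaged over triplicate plates.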

| SMILES | nuclei count |
| --- | --- |
| Cc1cnc(Nc2ccc(N3CCN(C)CC3)cc2)nc1Nc1cccc(S(=O)(=O)NC(C)(C)C)c1 | 5.44 |
| CC(C)CCN1c2nc(Nc3cc(F)c(O)c(F)c3)ncc2N(C)C(=O)C1C (stereo unspecified) | 54 ± 3.2 |
| O=C1NC(=O)/C(=C/c2ccc(-c3ccc(F)cc3O)o2)S1 | 104 |
| CC(=O)OC/C=C(C)/C=C/C=C(C)/C=C/C1=C(C)CCCC1(C)C [Retinyl acetate] | 92.9 |
| Clc1ccc2c(c1)N=C(N1CCNCC1)c1ccccc1N2 [N-Desmethylclozapine] | 95.2 |
| NS(=O)(=O)c1cc2c(cc1Cl)N=C(CSCc1ccccc1)NS2(=O)=O [Benzthiazide] | 106 |
| O=C1C(CC[S+]([O-])c2ccccc2)C(=O)N(c2ccccc2)N1c1ccccc1 (stereo unspecified) [Sulfinpyrazone] | 103 |
| O=c1ncn2nc(Sc3ccc(F)cc3F)ccc2c1-c1c(Cl)cccc1Cl | 99.6 |
| O=C(O)CC/C=C\C[C@H]1CO[C@@H](c2ccccc2Cl)O[C@H]1c1ccccc1O | 95.2 |
| C[C@]12C=CC(=O)C=C1CC[C@@H]1[C@@H]2[C@@H](O)C[C@@]2(C)[C@H]1CC[C@]2(O)C(=O)CO [Prednisolone] | 95 |
| C[C@]12C=CC(=O)C=C1CC[C@@H]1[C@@H]2[C@@H](O)C[C@@]2(C)[C@H]1CC[C@]2(O)C(=O)CO [Prednisolone (Hydroretrocortine)] | 98.9 |
| O=c1[nH]cc(F)c(=O)[nH]1 [5-fluorouracil] | 115 |
| CS(=O)(=O)c1ccc([C@@H](O)[C@@H](CO)NC(=O)C(Cl)Cl)cc1 [Thiamphenicol] | 79.5 |
| Cc1cncc(CN2CCC(=C3c4ccc(Cl)cc4CCc4cccnc43)CC2)c1 [Rupatadine Fumarate] | 97.7 |
| CC(C)Cc1ccc([C@H](C)C(=O)O)cc1 [S-(+)-ibuprofen] | 103 |
| CC(=O)Oc1cc(C(F)(F)F)ccc1C(=O)O [Triflusal] | 95.4 |
| CC(C)C(=O)SCCCCCCC(=O)Nc1nc(-c2ccccc2)cs1 | 45.8 |
| CCCCCCCC/C=C\CCCCCCCC(=O)NCc1ccc(O)c(OC)c1 [Olvanil] | 98.1 |
| CNC(=O)c1ccc2cc([C@@]3(O)CCn4cncc43)ccc2c1 [TAK-700 (Orteronel)] | 102 |
| N=c1ccn2c(n1)O[C@H]1[C@H](O)[C@@H](CO)O[C@H]12 [Cyclocytidine HCl] | 59.5 |
| COc1ccc(-c2nc(C(=O)N3CCN(C)CC3)sc2-c2ccc(OC)cc2)cc1 | 99.4 |
| C[C@@H]1CC(=O)NN=C1c1ccc(NN=C(C#N)C#N)cc1 [Levosimendan] | 83.3 |
| C[C@@H](c1ncncc1F)[C@](O)(Cn1cncn1)c1ccc(F)cc1F [Voriconazole] | 105 |
| Cc1nn(C)c2nc(NNC(=O)Nc3cc(Cl)nc(Cl)c3)cc(C(C)C)c12 | 106 |
| O=C(O)Cc1ccccc1Nc1c(Cl)cccc1Cl [Diclofenac Diethylamine] | 103 |
| O=C(O)Cc1ccccc1Nc1c(Cl)cccc1Cl [Diclofenac sodium] | 104 |

| SMILES | nuclei count |
| --- | --- |
| Cc1c(NC(=O)c2ccc(C(C)(C)C)cc2)cccc1-c1cn(C)c(=O)c(Nc2ccc(C(=O)N3CCOCC3)cc2)n1 | 96.5 |
| CN1CCN(CCCN2c3ccccc3Sc3ccc(S(=O)(=O)N(C)C)cc32)CC1 [Thioproperazine dimesylate] | 101 |
| CN[C@@H](C)[C@H]1[C@H](O)C[C@@]2(C)[C@@H]3CC[C@H]4C(C)(C)[C@@H](NC)CC[C@@]45C[C@@]35CC[C@]12C [Cyclovirobuxin D (Bebuxine)] | 95.7 |
| N#Cc1ccc(NCCNCC(=O)N2CCC[C@H]2C#N)nc1 [NVP DPP 728 dihydrochloride] | 91 |
| CN(C)c1nc(N)c(C(=O)Nc2cccnc2)nc1Cl [ACDPP hydrochloride] | 104 |
| COc1cc2c(cc1O)CC[C@@H]1[C@@H]2CC[C@]2(C)[C@@H](O)CC[C@@H]12 [2-Methoxyestradiol] | 34.7 |
| COC(=O)C1=C(C)NC(C)=C(C(=O)OC)C1c1ccccc1[N+](=O)[O-] [Nifedipine] | 92.5 ± 10 |
| Cc1cc(NC(=O)C2=C(O)c3ccccc3S(=O)(=O)N2C)no1 [Isoxicam] | 101 |
| Cc1cc(C(C)(C)CC(C)(C)C)ccc1OCCOCC[N+](C)(C)Cc1ccccc1 [Methyl benzethonium chloride] | 71.2 |
| C[C@H](CCC(=O)NCC(=O)O)[C@H]1CC[C@H]2[C@@H]3CC[C@@H]4C[C@H](O)CC[C@]4(C)[C@H]3C[C@H](O)[C@]12C [Glycodeoxycholic acid] | 105 |
| CN(C)CCCN1c2ccccc2CCc2ccc(Cl)cc21 [Clomipramine hydrochloride] | 102 ± 1.2 |
| CO[C@@]1(NC(=O)C2SC(=C(C(N)=O)C(=O)O)S2)C(=O)N2C(C(=O)O)=C(CSc3nnnn3C)CS[C@@H]21 (stereo partly specified) [Cefotetan] | 102 |
| CCN(CC)CCOC(=O)C1(c2ccc([N+](=O)[O-])cc2)CCCC1 [Nitrocaramiphen hydrochloride] | 97.7 ± 5.5 |
| COc1cc(Br)c(S(=O)(=O)Nc2ccc(Cl)c(O[C@@H]3CCN(C)C3)c2)cc1OC | 95.4 |
| Clc1ccccc1CN1CCc2sccc2C1 [Ticlopidine hydrochloride] | 102 |
| Nc1ccc(O)c(C(=O)O)c1 [Mesalamine] | 103 |
| COc1ccc([C@@H]2CNC(=O)C2)cc1OC1CCCC1 [(R)-(-)-Rolipram] | 96.2 |
| NC(=O)c1ccc2nc(-c3ccc(Oc4ccc(Cl)cc4)cc3)[nH]c2c1 | 105 |
| CC(=O)NCC(=O)N1[C@@H]2CC[C@H]1c1ccc(Nc3ncc(C(F)(F)F)c(NC4CCC4)n3)cc12 | 16.4 |
| Nc1ccc(S(=O)(=O)Nc2ncccn2)cc1 [Sulfadiazine] | 90.5 |
| CC(C)[C@H](C(=O)Nc1ccc(C(=O)NO)cc1)c1ccccc1 | 29.3 |
| C#C[C@]1(OC(C)=O)CC[C@H]2[C@@H]3CCC4=C[C@@H](OC(C)=O)CC[C@@H]4[C@H]3CC[C@@]21C [Ethynodiol diacetate] | 106.2 ± 0.54 |
| CCOC(=O)C=Cc1ccc(O)c(OC)c1 [Ferulic acid ethylester] | 100 |
| N[C@H]1CCN(O)C1=O | 106 |
| Nc1[nH]nc2nc3ccccc3nc12 | 98.5 |
| C#C[C@]1(O)CC[C@H]2[C@@H]3CCC4=CC(=O)CC[C@@H]4[C@H]3CC[C@@]21C [Norethindrone (Norethisterone)] | 99.7 |

| SMILES | nuclei count |
| --- | --- |
| C#C[C@]1(O)CC[C@H]2[C@@H]3CCC4=CC(=O)CC[C@@H]4[C@H]3CC[C@@]21C [Norethindrone] | 98.3 |
| Cc1cc2c(cc1C1(c3ccc(C(=O)O)cn3)CC1)C(C)(C)CCC2(C)C | 102 |
| C=CCc1cc(OC)c(O)c(C(=O)NCCO)c1 [Alibendol] | 98.9 |
| CO[C@@]1(NC(=O)C(C(=O)O)c2ccc(O)cc2)C(=O)N2C(C(=O)O)=C(CSc3nnnn3C)CO[C@@H]21 (stereo partly specified) [Moxalactam disodium salt] | 124 |
| O=C(NC[C@H](O)CN1CCc2ccccc2C1)c1ccnc(NC2CCC2)c1 | 102 |
| CN(CCc1ccc(Cl)c(Cl)c1)CC(O)COc1ccc(NS(C)(=O)=O)cc1 (stereo unspecified) | 108 and 95.8 |
| CO[C@H]1C[C@@H]2CC[C@@H](C)[C@@](O)(O2)C(=O)C(=O)N2CCCC[C@H]2C(=O)O[C@H]([C@H](C)C[C@@H]2CC[C@@H](O)[C@H](OC)C2)CC(=O)[C@H](C)/C=C(\C)[C@@H](O)[C@@H](OC)C(=O)[C@H](C)C[C@H](C)/C=C/C=C/C=C/1C [Rapamycin] | 107 |
| CO[C@H]1C[C@@H]2CC[C@@H](C)[C@@](O)(O2)C(=O)C(=O)N2CCCC[C@H]2C(=O)O[C@H]([C@H](C)C[C@@H]2CC[C@@H](O)[C@H](OC)C2)CC(=O)[C@H](C)/C=C(\C)[C@@H](O)[C@@H](OC)C(=O)[C@H](C)C[C@H](C)/C=C/C=C/C=C/1C [Rapamycin (Sirolimus)] | 84.8 ± 10 |
| Cc1cccc(CCN2CCC(C(=O)c3ccc(NS(C)(=O)=O)cc3)CC2)n1 [E-4031 dihydrochloride] | 94.5 |
| N[C@@H]1CCCN(c2c(/C=C3\SC(=O)NC3=O)cccc2-c2ccccc2)C1 | 93.5 |
| Oc1ccc(Nc2nc(-c3ccc(Cl)cc3)cs2)cc1 | 78.2 ± 0.81 |
| N#Cc1ccc2[nH]c(O)c(-c3ccc(CN4CCOCC4)cn3)c2c1 | 82.8 |
| COc1cc2ncnc(Nc3ccc(Cl)cc3F)c2cc1OC | 91.6 and 100 |
| CCCCCCCCCCCCCCCC[N+](C)(C)CCN(Cc1ccc(OC)cc1)c1ncccn1 [Thonzonium bromide] | 12.1 |
| O=C(O)P(=O)(O)O [Foscarnet Sodium] | 102 |
| CC(C)(C)NS(=O)(=O)c1cncc(-c2cc(F)c3nc(N)nn3c2)c1 | 98.4 |
| CCN(CC)CCCC(C)Nc1c2ccc(Cl)cc2nc2ccc(OC)cc12 (stereo unspecified) [Quinacrine dihydrochloride dihydrate] | 12.9 |
| Cc1[nH]c(/C=C2\C(=O)Nc3ccccc32)c(C)c1CCC(=O)O | 102 and 105 |
| CC(=O)N1CCN(c2ccc(OCC3COC(Cn4ccnc4)(c4ccc(Cl)cc4Cl)O3)cc2)CC1 (stereo unspecified) [Ketoconazole] | 83 ± 3.4 |
| CC1=C(C)C(=O)C(CCCCC#CCCCC#CCO)=C(C)C1=O | 86.4 |
| CC(C)NCC(O)c1ccc(NS(C)(=O)=O)cc1 (stereo unspecified) [Sotalol hydrochloride] | 108.9 ± 0.4 |
| C#C[C@]1(O)CC[C@H]2[C@@H]3CCc4cc(OC)ccc4[C@H]3CC[C@@]21C [Mestranol] | 97.9 |
| C#C[C@]1(O)CC[C@H]2[C@@H]3CCc4cc(OC)ccc4[C@H]3CC[C@@]21C [Ethynylestradiol 3-methyl ether] | 105 |
| C1=N/C2=N/c3ccc(OCCN4CCCC4)c(c3)COC/C=C/COCc3cccc(c3)C(=C1)N2 [Pacritinib (SB1518)] | 16.7 |
